# Laboratory results from publication PMC4336329 (PLoS ONE, 2015).
# About 14,000 (4.5%) of roughly 310,000 compounds showed an effect of 50% or more. Effects have a minus sign here. The list shows a part of the results. Where a SMILES comes first, the peptide text is derived from it. The star is where a group is joined. Boc = CC(C)(C)OC(=O)*; Bn = c1ccc(C*)cc1
# Target: human ether-à-go-go-related gene (hERG) potassium channel (human, UniProt Q12809)
# Assay: primary screen, population patch clamp on CHO cells stably expressing hERG
# 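Note: peak tail current of the secondary pulse compared with the same well before compound.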
# Sequence of human ether-à-go-go-related gene (hERG) potassium channel (Q12809 whole entry, looked up): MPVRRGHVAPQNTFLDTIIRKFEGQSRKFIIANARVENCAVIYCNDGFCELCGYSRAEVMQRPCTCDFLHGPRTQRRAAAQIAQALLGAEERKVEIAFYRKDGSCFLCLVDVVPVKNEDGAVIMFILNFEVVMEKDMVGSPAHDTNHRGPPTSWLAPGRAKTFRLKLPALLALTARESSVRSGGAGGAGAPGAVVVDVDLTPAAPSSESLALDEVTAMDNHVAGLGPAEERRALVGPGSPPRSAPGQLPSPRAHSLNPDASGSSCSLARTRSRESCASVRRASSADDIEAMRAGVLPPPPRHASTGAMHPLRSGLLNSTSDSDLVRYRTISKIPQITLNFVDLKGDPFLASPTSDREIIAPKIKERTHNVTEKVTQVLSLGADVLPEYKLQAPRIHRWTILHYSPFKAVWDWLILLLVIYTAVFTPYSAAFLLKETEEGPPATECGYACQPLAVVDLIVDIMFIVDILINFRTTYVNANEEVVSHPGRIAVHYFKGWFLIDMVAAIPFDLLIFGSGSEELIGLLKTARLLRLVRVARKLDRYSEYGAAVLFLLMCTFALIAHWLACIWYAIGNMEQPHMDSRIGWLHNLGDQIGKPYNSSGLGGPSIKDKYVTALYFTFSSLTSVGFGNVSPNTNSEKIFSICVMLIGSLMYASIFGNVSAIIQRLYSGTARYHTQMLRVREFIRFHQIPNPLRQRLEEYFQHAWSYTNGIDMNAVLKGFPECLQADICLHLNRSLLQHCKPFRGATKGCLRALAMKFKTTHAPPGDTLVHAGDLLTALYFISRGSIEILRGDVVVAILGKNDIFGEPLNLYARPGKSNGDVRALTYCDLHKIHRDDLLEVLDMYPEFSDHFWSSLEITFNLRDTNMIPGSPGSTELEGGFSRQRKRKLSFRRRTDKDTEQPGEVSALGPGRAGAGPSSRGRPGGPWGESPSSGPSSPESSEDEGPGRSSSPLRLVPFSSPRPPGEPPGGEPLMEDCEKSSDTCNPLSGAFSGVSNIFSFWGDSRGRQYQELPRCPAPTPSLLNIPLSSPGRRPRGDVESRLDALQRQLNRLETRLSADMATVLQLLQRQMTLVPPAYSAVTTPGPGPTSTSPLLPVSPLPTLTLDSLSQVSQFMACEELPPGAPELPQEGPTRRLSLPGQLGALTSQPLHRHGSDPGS
row,Structure (SMILES),"hERG current change (%, negative = inhibition) at 10uM [%]"
1,Cl.c1coc(CNc2nc(N3CCCCC3)nc3ccccc23)c1,-77.5
2,CCOc1cccc(C(=O)Nc2cccc(NC(=O)c3ccco3)c2)c1,-37.8
3,COc1nc(-c2ccccc2)ccc1-c1noc(-c2cccnc2)n1,5.15
4,Cc1ccc(Cl)c2c1NC(=O)C2(O)CC(=O)c1ccc(Br)cc1 (stereo not shown),-5.09
5,COc1ccc(Cl)cc1Nc1nc(NCCO)nc(N2CCCC2)n1,8.89
6,COc1ccc(-c2noc(Cc3ccccc3OC)n2)cc1,7.74
7,O=C(/C(=C/O)N=Nc1ccccc1Cl)c1ccccc1,17.5
8,COC(=O)C1=C(C)N(C)C(C)=C(C(=O)OC)C1c1ccc(F)c(Br)c1,-2.09
9,CCOC(=O)N1CCC(=NNC(=O)NC2CCCCC2)CC1,10
10,CCCc1nnc(NC(=O)CCN2C(=O)c3ccccc3C2=O)s1,5.37
11,CCc1ccc(OCCSc2nc3ccccc3n2CC(=O)O)cc1,3.37
12,Cc1cccc(C)c1N1CCN(c2nc(N(C)C)oc(=O)c2C#N)CC1,-12.2
13,N#CCN1CCN(CC(=O)c2ccc(Br)cc2)CC1,21.5
14,CCC(=O)NC(=S)Nc1ccccc1F,17.7
15,CCNS(=O)(=O)c1ccc(CCC(=O)N2CCc3ccccc3C2)cc1,-27
16,COc1cccc(NC(=O)COc2ccc(C(=S)N3CCN(C)CC3)cc2OC)c1,1.36
17,CCOCC(=O)Nc1cc(C(=O)OC)cc(C(=O)OC)c1,10.8
18,COc1cc(OC)cc(C(=O)NNC(=S)Nc2ccc(S(N)(=O)=O)cc2)c1,11.2
19,CCN(CC)CCNc1nc2nonc2nc1NCCN(CC)CC,-0.14
20,Cl.O=C(CN1CCCC1)NC1C2CC3CC(C2)CC1C3 (stereo not shown),-27.4
21,Cc1ccc(OCCN2CCN(CC(O)Cn3c4ccccc4c4ccccc43)CC2)cc1.O=C(O)C(=O)O (stereo not shown),-25.1
22,Cc1ccc(NC(=O)c2ccc3c(c2)CCN3S(C)(=O)=O)cc1C,-17.1

row,Structure (SMILES),"hERG current change (%, negative = inhibition) at 10uM [%]"
1,COC(=O)c1c(NC(=O)c2ccccc2)sc(C(=O)c2ccccc2)c1C,-4.52
2,Cc1nc(CC(=O)O)c(-c2ccccc2)s1,9.42
3,Cc1cc2c3c(c1C)C1(C(=O)N3C(C)(C)CC2C)C(C#N)=C(N)Oc2cc(O)ccc21 (stereo not shown),8.28
4,CC(C)CC(NC(=O)C(Cc1ccc(OCc2ccccc2)cc1)NC(=O)OC(C)(C)C)C(N)=O (stereo not shown) (Boc-Tyr(Bn)-Leu-NH2; configuration not given here),1.96
5,O=C(CCn1cnc2ccccc21)N=Nc1c(O)[nH]c2ccccc12,-0.803
6,CCOc1ccc(NC(N)=O)cc1OCC,6.79
7,CC(=O)Nc1cccc(C(=O)Nc2cccnc2)c1,19.4
8,CC1(C)C(=O)OC(c2ccc([N+](=O)[O-])cc2)C(C)(C)C1=O (stereo not shown),18.4
9,COc1ccc(OC)c(S(=O)(=O)NCCCc2ccccc2)c1,22.2
10,CCOc1ccc(C(=O)c2cc3ccc(O)cc3oc2=O)cc1,31.8
11,Cc1ccc(C(=O)NC2CCN(CC(=O)Nc3ccccc3Cl)CC2)cc1,-45
12,CC(=O)Nc1ccc(NC(=O)C(F)(F)F)cc1,26.7
13,CC(C)c1nnc(NC(=O)COc2ccccc2[N+](=O)[O-])s1,-2.04
14,CCOc1cccc(-c2nnc3sc(-c4ccco4)nn23)c1,5.72
15,CCCCCCNC(=O)c1cc(S(=O)(=O)N2CCc3ccccc32)ccc1F,14.9
16,COc1ccccc1N1CCN(C(=O)c2cc3cc(C)ccc3[nH]2)CC1,13.9
17,CCc1noc(C)c1C(=O)Nc1nc(-c2ccc(OC)cc2)cs1,-6.43
18,CCNCC(O)c1cccc(O)c1 (stereo not shown),20.8
19,OCc1nc2ccccc2n1CC(O)Cn1ccc2ccccc21 (stereo not shown),1.93
20,COc1cc(/C=N/NC(=S)NCCN2CCOCC2)cc(OC)c1OC,-6.67
21,Cc1ccc(-c2nnn(CC(=O)N(Cc3ccc(F)cc3)C(C(=O)NC3CCCC3)c3ccncc3)n2)o1 (stereo not shown),-12.4
